In a collection of fitness landscapes (doi:10.1016/j.celrep.2020.107928):
In all, about 81,000 sequences were measured (“one-hybrid fitness for binding parS DNA”: median about -0.17, highest 2% from about 0.51 on). The list shows a part of the results.

B1: Caulobacter ParB omega fusion; a variant is named by its letters at X, in order, B8GW30 (parent)
chain: MESVVVGEPGMSEGRRGLGRGLSALLGEVDAAPAQAPGEQLGGSREAPIEILQRNPDQPRRTFREEDLEDLSNSIREKGVLQPILVRPSPDTAGEYQIVAGERAWRAAQRAGLKTVPIMVRELDDLAVLEIGIIENVQRADLNVLEEALSYKVLMEKFERTQENIAQTIGKSXSHVANXMRLLXLPDEVQSYLVSGELTAXHARAIAAAADPVALAKQIIEGGLSVRETEALARKAPNLSAGKSKGGRPPRVKDTDTQALESDLSSVLGLDVSIDHRGSTGTLTITYATLEQLDDLCNRLTRGI

Variants of: B1
Experiment: one-hybrid fitness for binding parS DNA (scaled: cognate 1, non-cognate 0); higher = stronger binding
Details: with parS DNA site
Summary of the method: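 The reporter was HIS3, with the binding site 19 bp from the promoter, in E. coli USO used for bacterial one-hybrid selection of Caulobacter ParB libraries with four specificity codons randomised. Growth was on M9 lacking histidine, with 0.1 mM IPTG and 5 mM 3-AT, for 48 hours at 37°C. Illumina sequencing covered plasmids before and after selection; three replicate libraries were pooled and variants with under 10 reads dropped. A fitness score is the log change in variant-to-wild-type read ratio, rescaled to the cognate and non-cognate references.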

one-hybrid fitness for binding parS DNA, 0.342:
RLAM

one-hybrid fitness for binding parS DNA, 0.924:
RIIG

one-hybrid fitness for binding parS DNA, 0.277:
RHRM

one-hybrid fitness for binding parS DNA, 0.275:
RYEM

one-hybrid fitness for binding parS DNA, 0.627:
RNFC

one-hybrid fitness for binding parS DNA, 0.734:
RGAS

one-hybrid fitness for binding parS DNA, 0.43:
RTLN

one-hybrid fitness for binding parS DNA, 0.425:
RFAY

one-hybrid fitness for binding parS DNA, 0.346:
LDNN

one-hybrid fitness for binding parS DNA, 0.959:
RIGS

one-hybrid fitness for binding parS DNA, 0.983:
RSGS

one-hybrid fitness for binding parS DNA, 0.355:
HRRG

one-hybrid fitness for binding parS DNA, 0.22:
RTWD

one-hybrid fitness for binding parS DNA, ≤ 0.2:
GQVQ
YFGS
PPGY
DNIG
KPRI
SWPL
NWKR
GLNM
GFPR
RNAH
QEWT
GNLS
MGMT
TTMC
WVAC
QAKY
CPAM
QNER
THAR
GQWG
GPLI
IGRW
SGSV
TWDE
IVNW
DIPP
QAYT
RNQH
SQMG
LARG
TYNN
NNSM
YLSK
TKTL
WHHR
IVYS
AIGT
TFPE
KLND
LPTR
VCPS
DPQI
RWTI
QICI
GTMM
TGKR
SEMK
PFAA
CLTK
VYYC
HRDW
GMLR
CGHT
HDNK
PRHV
EIHM
RRSL
LCIW
EEAG
PSPK
ESKV
QVLF
EYSC
YADT
WSGV
QLTK
RENR
CEST
LTLC
CSYC
PLNK
TVGS
MWTG
GETS
RAMR
ERNS
DINC
CEER
LLDC
GLQC
PPNP
WRTT
CQKR
PCGC
VYRS
YNAF
LPEI
RERI
HYTL
TNSW
SPDA
QPYI
ASLF
DAAY
LTVV
TKWR
TYHD
GDKK
GWLA
HFPS
KKDS
QVKC
NRHQ
DLPN
LPVW
LPTK
FQNL
NLAD
PLRH
DEDT
HDPL
KLSS
RPSN
HMNE
YVRD
PPTA
KHQF
VTVM
GLMT
FCNV
YPGT
HRAT
MTAD
ASAD
GSSS
QTGP
MWGG
TNGP
MAKI
QLKP
TNSL
KRAV
SAWM
NKAW
SKKR
TREE
PLPL
YKES
WRCT
QATC
LQLT
ITPR
QYSK
QKYV
HHWT
PGES
NAPQ
IMKR
HLNN
QFFG
FWDR
THNG
TQIG
AGKF
QPKF
NDGD
DAGI
NVLR
KNFS
PMQS
PMSS
ASAV
EWTN
AQIN
VITG
SLYA
CYFG
WMES
CALW
TFKH
TKCT
KYRC
YDTM
LIER
QDND
QHYY
HDTI
LEWT
PRWK
YDIF
YNGI
AGRY
GKIG
FMRT
NAVK
IAGG
AGDY
SDPP
GRMC
DLHA
RVSQ
LEHC
KPAS
PSVG
HHCA
AKRS
VGPK
ISGK
AHRG
QLKV
DMNG
CSAF
SCRG
HISR
HETV
VSWV
EDKW
HRKV
CVQW
QNET
RFDR
QVEL
RHGV
SSLM
YKKS
REYQ
HHKV
TKPW
RRRF
QPDL
TWWE
HMKI
TGQG
CLWT
QGNR
PSVW
NWAE
HMTC
TCRV
LANN
NTSC
LLCV
LCRN
THEQ
FRAR
PSFR
TSVQ
KLRP
ECRS
LIIR
LAVC
PMDF
CFST
PNDQ
QTER
MGGV
NWPC
RRGR
PTPC
CAHW
ANRT
AENM
RGSP
STSW
PQCH
IDAT
PKIY
MPLN
DYIF
RQDK
HRPC
KWYT
KKKL
LCWL
PSNE
VWLC
PYDR
AIER
HENS
MERE
LRHP
WYSR
VHAM
IRRD
GFNW
CFSY
YVTE
SMQS
NYMS
ILPE
CIGS
YRLL
DHYM
YGTA
WMSG
MVQC
QACN
VMAP
ALNT
WCVS
VAPP
RHSP
YNRG
